In PubChem BioAssay (Tox21):
The inconclusive results got no clear call from the source; some entries with a clear call stand among them for comparison. Where a call stands in place of a potency, no number is given. A potency beside an inconclusive call is a rough fit, not a confirmed value. Calls of active or inactive are those of the source.

What follows are compounds tested against Glucocorticoid receptor (Homo sapiens) (UniProt P04150) (assay: qHTS assay to identify small molecule agonists of the glucocorticoid receptor (GR) signaling pathway (AID 720691; active means well fitted activation curve with a large enough effect in the signal ratio in the repeat runs, not every such curve was filed as active; inconclusive means weak or mixed curves, or effect the other way; inactive means no such curve, though single readings can be large or run the other way; the % refers to the signal ratio)). Conditions: GR-bla HeLa, beta-lactamase reporter ratio, 18 h; activation: at 62.4 µM (top of the series; the call rests on the fitted dose curve and not on this point) unless noted.
How it was run: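 Agonist mode in a HeLa line carrying a GRE-controlled beta-lactamase reporter. Compounds act for 18 h at 37 C before a 2 h room-temperature FRET substrate step and fluorescence reading.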
Potency means the concentration at half of the fitted maximal effect; tags describe the fitted curve by direction and shape or compound fluorescence and quenching.

UniProt P04150, sequence (P04150 whole entry, looked up): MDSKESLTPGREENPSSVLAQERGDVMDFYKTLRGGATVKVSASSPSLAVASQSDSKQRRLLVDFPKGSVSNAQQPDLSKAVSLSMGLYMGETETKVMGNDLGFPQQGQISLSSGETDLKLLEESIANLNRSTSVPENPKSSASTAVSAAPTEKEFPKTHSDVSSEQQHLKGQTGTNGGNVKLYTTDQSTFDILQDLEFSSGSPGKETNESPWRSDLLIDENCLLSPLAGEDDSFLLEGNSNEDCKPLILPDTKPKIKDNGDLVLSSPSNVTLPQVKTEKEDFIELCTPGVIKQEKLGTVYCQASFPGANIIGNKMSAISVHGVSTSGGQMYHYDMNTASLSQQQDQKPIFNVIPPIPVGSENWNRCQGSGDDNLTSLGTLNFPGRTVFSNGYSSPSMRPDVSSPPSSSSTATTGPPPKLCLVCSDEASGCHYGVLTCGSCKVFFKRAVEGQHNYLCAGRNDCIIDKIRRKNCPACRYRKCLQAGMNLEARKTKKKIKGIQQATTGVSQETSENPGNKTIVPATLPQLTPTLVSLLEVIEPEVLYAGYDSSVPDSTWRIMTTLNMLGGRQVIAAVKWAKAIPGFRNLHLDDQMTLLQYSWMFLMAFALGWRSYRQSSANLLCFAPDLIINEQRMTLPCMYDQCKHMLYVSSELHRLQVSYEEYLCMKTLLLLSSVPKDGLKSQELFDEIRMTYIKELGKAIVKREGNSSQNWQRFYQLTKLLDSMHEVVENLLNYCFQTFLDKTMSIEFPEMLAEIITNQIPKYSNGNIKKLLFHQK

SMILES	activation	Potency
C=CCOC(=O)C(=C)C	inconclusive: -0.637% [phenotype inactive] [at 79.2 µM]	–
CCCCOC(=O)CC	–	inactive
CC(=O)CCC1=C(C)CCCC1(C)C	–	inactive
Cc1cccc(C)c1	–	inactive
O=C(O)c1cc(=O)c2ccccc2o1	–	inactive
CC(=O)N[C@@H](Cc1ccc(O)cc1)C(=O)O	–	inactive
COCCOCCOCCO	–	inactive
CC(=O)OCC(C)C	inconclusive: -0.98% [phenotype inactive]	–
C/C(C=O)=C\c1ccccc1	–	inconclusive: 10.7 µM [falling, partial curve, poor fit]
O=C(O)c1ccccc1C(=O)O	–	inactive
CCC(=O)O	–	inactive
CCOC(=O)C(C)(C)Oc1ccc(Cl)cc1	–	inconclusive: 2.68 µM [rising, full curve]
IC(I)I	–	inactive
CCc1ccc(Br)cc1	–	inactive
O=C1OC(=O)c2cc([N+](=O)[O-])ccc21	–	inactive
CC(=O)Oc1cccc2c1C(=O)c1c(OC(C)=O)cc(C(=O)O)cc1C2=O	inconclusive: 0.276% [phenotype inactive]	–
O=[N+]([O-])c1ccc(Cl)cc1Cl	–	inactive

The compounds below were run against Glucocorticoid receptor (Homo sapiens) (UniProt P04150) (assay: qHTS assay to identify small molecule antagonists of the glucocorticoid receptor (GR) signaling pathway (AID 720692; active means well fitted inhibition curve with a large enough effect in the signal ratio in the repeat runs, not every such curve was filed as active; inconclusive means weak or mixed curves, or effect the other way; inactive means no such curve, though single readings can be large or run the other way; the % refers to the signal ratio)). Conditions: GR-bla HeLa, beta-lactamase FRET ratio, dexamethasone-stimulated, 18 h; activity change, negative = inhibition: at 58.5 µM (top of the series) unless noted.
How it was run: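 Cells plated, rested 4 h at 37 C/5% CO2; compounds in DMSO pin-transferred; dexamethasone added to 5 nM final; 18 h at 37 C; B/G FRET substrate added, 2 h room temperature; fluorescence measured.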

SMILES	Potency	activity change, negative = inhibition
CN[C@@H]1[C@H](O)[C@H](NC)[C@H]2O[C@@]3(O)C(=O)C[C@@H](C)O[C@H]3O[C@@H]2[C@H]1O	inactive	–
CC(C)(O)CCc1ccccc1	–	inconclusive: 13.8%
C=CCOC(=O)C(=C)C	–	inconclusive: 5.67%
COc1cc(S(=O)(=O)Nc2ccccc2)c(OC)cc1N	inactive	–
CC(=O)OCCc1ccccc1	inactive	–
OCCN(CCO)CCN(CCO)CCO	inactive	–
CC[C@H](C)[C@H](N)C(=O)O	–	inconclusive: -2.43%
NCCOCCO	inactive	–
Cc1cccc(C)c1	inactive	–
O=S1(=O)CCCO1	–	inconclusive: 21.4% [at 78.9 µM]
Cc1nc2c([nH]1)c(=O)n(C)c(=O)n2Cc1ccco1	inconclusive: 9.52 µM	–
O=C(O)c1cc(=O)c2ccccc2o1	inactive	–
CC(=O)OCC1=C(C(=O)O)N2C(=O)[C@@H](NC(=O)CSc3ccncc3)[C@H]2SC1	–	inconclusive: 6.42%
CCCCCCC(O)CCCCCCCCCCC(=O)OC (centres undefined)	inconclusive: 19.5 µM [fluorescent, single point]	–
C/C(C=O)=C\c1ccccc1	inconclusive: 21.4 µM [activator, partial curve]	–
CCCCCCCCCCCC[N+](C)(C)CCCS(=O)(=O)[O-]	inconclusive: 3.94 µM	–
CC(C)(C)C(=O)O	–	inconclusive: 39.3% [at 78.9 µM]
O=C(O)CCC(=O)c1ccc(-c2ccccc2)cc1	inactive	–
C=C(C)C1CC=C(C)C(=O)C1 (centres undefined)	inactive	–
O=C(OCCOCCO)c1ccccc1Nc1cccc(C(F)(F)F)c1	–	inconclusive: -35.2% [at 27 µM]
CS(=O)(=O)c1ccc([C@@H](O)[C@@H](CO)NC(=O)C(Cl)Cl)cc1	inactive	–
O=c1[nH]c(=O)c2[nH]c(=O)[nH]c2[nH]1	inactive	–
Cc1cccc(S(=O)(=O)O)c1C	inactive	–
CCCOCCO	inactive	–
CC(C)(c1cc(Br)c(OCC(Br)CBr)c(Br)c1)c1cc(Br)c(OCC(Br)CBr)c(Br)c1 (centres undefined)	inactive	–
CC(=O)Oc1cccc2c1C(=O)c1c(OC(C)=O)cc(C(=O)O)cc1C2=O	inactive	–
Cc1ccc2c(c1)CCCN2	inactive	–
